In all, about 48,000 compounds went through this assay and about 550 (1.1%) were called active. Not shown: some 4% with an inconclusive outcome. No stated cut-off is given here; in the data, active means potency below about 15 µM; inconclusive means mostly about 16 µM to 33 µM; inactive means weaker than that. The list shows a part of the results.
These molecules were tested against Lysosomal acid glucosylceramidase (Homo sapiens) (UniProt P04062) (assay: Glucocerebrosidase). Details: purified enzyme, resorufin glucoside fluorescence (screen aimed at inhibitors), 20 min.
Chain of UniProt P04062 (P04062 whole entry, looked up): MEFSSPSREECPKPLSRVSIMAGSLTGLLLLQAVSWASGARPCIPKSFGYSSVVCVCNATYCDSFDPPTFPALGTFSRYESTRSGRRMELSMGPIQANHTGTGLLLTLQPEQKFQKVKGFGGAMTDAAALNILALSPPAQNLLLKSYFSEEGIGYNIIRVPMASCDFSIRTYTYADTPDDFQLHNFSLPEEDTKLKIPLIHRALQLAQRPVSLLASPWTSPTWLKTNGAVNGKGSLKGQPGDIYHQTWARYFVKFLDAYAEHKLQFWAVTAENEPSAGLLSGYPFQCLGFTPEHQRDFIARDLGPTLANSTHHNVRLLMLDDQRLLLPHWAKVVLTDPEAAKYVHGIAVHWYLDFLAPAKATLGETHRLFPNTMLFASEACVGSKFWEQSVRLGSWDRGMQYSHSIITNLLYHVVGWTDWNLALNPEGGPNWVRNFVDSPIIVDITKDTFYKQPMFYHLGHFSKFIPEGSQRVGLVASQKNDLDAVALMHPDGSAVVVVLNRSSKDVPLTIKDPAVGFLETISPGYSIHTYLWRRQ
Outline: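 Wild-type enzyme at 0.2 nM final in 50mM citric acid/KH2PO4, 10mM sodium taurocholate, 0.01% tween-20, pH 5.9, with resorufin beta-D-glucopyranoside at 30 uM final. Compounds titrated, 20 min at RT, red fluorescence read; AC50 from titration.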
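Further: the screen sought inhibitors.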
Potency means the concentration at half of the fitted maximal effect.

Potency, inactive:
Cc1ccccc1Cn1cc(S(=O)(=O)CC(=O)N2CCCCC2)c2ccccc21 > 76.9 µM
CCOC(=O)Cn1nnnc1CN(Cc1ccc(OC)cc1)Cc1cc2cc(C)cc(C)c2[nH]c1=O > 76.9 µM
O=C(CN1CCN(c2ccccc2F)CC1)Nc1ccccc1F > 76.9 µM
COc1ccc(/C(O)=C2\C(=O)C(=O)N(CCN(C)C)C2c2cc(OC)c(OC)c(OC)c2)c(C)c1 (stereo not drawn) > 76.9 µM
CCc1cccc(NC(=O)Cn2ncn3c(cc4ccccc43)c2=O)c1 > 76.9 µM
CCOc1ccccc1-c1nc(-c2cc3ccccc3nc2OC)no1 > 76.9 µM
O=C(NC1CCN(C(=O)NCc2ccccc2)CC1)c1ccco1 > 76.9 µM
COc1cc(CNc2ccc3[nH]c(=O)[nH]c3c2)ccc1OCC(=O)NC(C)(C)C > 76.9 µM
Cc1cccc(C(=O)c2ccccc2C(=O)O)c1O > 76.9 µM
CCOC(=O)c1csc(NC(=O)CSc2nnnn2-c2ccc(OC)cc2)n1 > 76.9 µM
O=S1(=O)CC(N2CCCCC2)C(N2CCCCC2)C1 (stereo not drawn) > 76.9 µM
CCOC(=O)CSc1ncnc2c1cnn2-c1ccc(Cl)cc1 > 76.9 µM
Cc1ccccc1NC(=O)CSc1nc2c(c(-c3ccco3)c1C#N)CCCC2 > 76.9 µM
O=C(CSc1nnc(CNC(=O)c2ccccc2F)o1)NCC1CCCO1 (stereo not drawn) > 76.9 µM
CCOC(=O)c1sc2ncn(C(C)C(=O)OC)c(=O)c2c1C (stereo not drawn) > 76.9 µM
CCOC(=O)c1cc2c(=O)n3ccccc3nc2n(CCOC)c1=NC(=O)C(C)(C)C > 76.9 µM
O=C(CSc1nc2ccccc2c(=O)n1Cc1ccco1)NCc1ccco1 > 76.9 µM
Cc1nn(Cc2ccc(C(=O)Nc3ccc(C(=O)OC(C)C)cc3)o2)c(C)c1Cl > 76.9 µM
O=C1c2oc3ccccc3c(=O)c2C(c2ccccn2)N1Cc1ccccc1 (stereo not drawn) > 76.9 µM
Cc1cc(NC(=O)Cc2cccs2)nn1CC(=O)NCc1ccco1 > 76.9 µM
COC(=O)CN(C)C1CC(=O)N(c2ccc(Cl)cc2)C1=O (stereo not drawn) > 76.9 µM
O=C(Cn1c(=O)[nH]c2ccsc2c1=O)NC1CCCCCC1 > 76.9 µM
C=CCn1c(=N)n(CC(=O)OCC)c2ccccc21 > 76.9 µM
Cc1c(C(=O)Nc2ccccc2)oc2c1C(=O)CC(C)(C)C2 > 76.9 µM
CN1C(=O)OC2(C)CCc3ccccc3C12C (stereo not drawn) > 76.9 µM
O=C(O)CCCC(=O)Nc1cccc(-c2nc3ccccc3[nH]2)c1 > 76.9 µM
CCN(Cc1ccccc1)C(=O)Cn1cnc2c1c(=O)n(C)c(=O)n2C > 76.9 µM
CCOC(=O)N1CCN(CC(=O)c2ccc3c(c2)CCN3)CC1 > 76.9 µM
COC(=O)c1cc(C(=O)OC)cc(N2C(=O)CC(Sc3nc(C)cc(C)n3)C2=O)c1 (stereo not drawn) > 76.9 µM
CC(=O)c1cc(OC(=O)c2ccncc2)ccc1OC(=O)c1ccncc1
Cc1ccc(NCc2nnc(SCC(=O)N3CCc4ccccc43)n2C)cc1 > 76.9 µM
Cc1ccc(C(C(=O)NCc2ccc(F)cc2)N(C(=O)c2csnn2)C2CC2)o1 (stereo not drawn) > 76.9 µM
COc1ccccc1S(=O)(=O)n1cc(Cc2ccccc2)c(N)n1 > 76.9 µM
O=[n+]1c2c(n([O-])c3cc(F)c(N4CCCC4)cc31)CCC2 > 76.9 µM
O=C(CSc1oc(-c2ccco2)nc1S(=O)(=O)c1ccc(Cl)cc1)NCC1CCCO1 (stereo not drawn) > 76.9 µM
CCCC1=C(C(=O)OCC)C(c2cc(Cl)cc(OC)c2OCC(=O)OCC)NC(=O)N1 (stereo not drawn) > 76.9 µM
COc1cc(S(=O)(=O)N2CCN(C(=O)c3ccccc3F)CC2)c(OC)cc1NC(C)=O > 76.9 µM
Cc1cc(=O)[nH]c(Nc2ccc(C(=O)OC(C)C)cc2)n1
Cc1ccn2cc(-c3nonc3C)cc2c1 > 76.9 µM
COc1ccc2[nH]c(C)c(CN3CCCCC3)c(=O)c2c1 > 76.9 µM
O=c1[nH]c2cc3c(cc2cc1CN(CC1CCCO1)S(=O)(=O)c1ccc(Cl)cc1)OCCO3 (stereo not drawn) > 76.9 µM
COc1ccc(-c2c(=O)n(OCc3ccccn3)c3ccccc3[n+]2[O-])cc1OC > 76.9 µM
CCOC(=O)Cn1c(=NC(=O)CSC(C)=O)sc2cc(OC)ccc21 > 76.9 µM
CC1(C)CC(=O)C(C=Nc2ccc(O)cc2)=C(O)C1 > 76.9 µM
CC(C)NC(=O)CCNS(=O)(=O)c1ccc(Br)cc1 > 76.9 µM
Cc1cc(-c2ccccc2)nc2[n+]1CCN2C > 76.9 µM
c1ccc(-c2nc(-n3ccnc3)nc(-n3ccnc3)n2)cc1 > 76.9 µM
Cc1ccc(-c2nnn(CC(=O)N(CC(=O)NC3CCCC3)c3cnc4ccccc4c3)n2)o1 > 76.9 µM
CCC(C)(C(=O)NC1CCCCC1)N(Cc1ccco1)C(=O)CC1NC(=O)NC1=O (stereo not drawn) > 76.9 µM
O=C(OCC(=O)N1CCN(C(=O)c2ccco2)CC1)c1ccccc1OCc1ccccc1 > 76.9 µM
Cc1cc(NC(=O)CSc2nc(-c3cccs3)cc(C(F)(F)F)n2)no1 > 76.9 µM
CCC(C)(C(=O)NC1CCCC1)N(Cc1ccco1)C(=O)c1ccccn1 (stereo not drawn) > 76.9 µM
CCOc1ccc(NC(=O)C2CC(=O)NC(N3CCc4ccccc43)=N2)cc1 (stereo not drawn) > 76.9 µM
O=C(c1ccco1)N1CCN(S(=O)(=O)c2ccc(F)cc2)CC1 > 76.9 µM
CC(CCc1ccccc1)NC(=O)c1ccc(Br)o1 (stereo not drawn) > 76.9 µM
C=CCn1c(NC(=O)c2ccccc2Cl)c(C#N)c2nc3ccccc3nc21 > 76.9 µM
O=C(C1CCCCC1)N(CCN1CCCC1)c1nc2ccccc2s1 > 76.9 µM
COCCn1c(SCC(=O)N2CCCCC2)nc2cccnc21 > 76.9 µM
Cc1nnc2n1NC(c1ccc(Cl)cc1)C(C(=O)N(C)C1CCCCC1)S2 (stereo not drawn) > 76.9 µM
Cc1cccc(-c2nnc(SCc3nc4ccccc4[nH]3)n2Cc2ccco2)c1 > 76.9 µM
Cc1ccc2c(c1)CC1(CN2C)C(=O)OC2(CCCCC2)OC1=O > 76.9 µM
O=C1OCc2cc(NS(=O)(=O)c3cccs3)ccc21 > 76.9 µM
CCn1c(=O)cc(N2CCCCC2)[nH]c1=O > 76.9 µM
CCCC(=O)Nc1nnc(CC(=O)OCC)s1 > 76.9 µM
CS(=O)(=O)Nc1ccccc1C(=O)Nc1ccc2c(c1)OCCO2 > 76.9 µM
O=C(Nc1cccc(-c2nnc(-c3ccccc3)o2)c1)C1CCCO1 (stereo not drawn) > 76.9 µM
CC1Cn2c(nnc2-c2cccs2)S1 (stereo not drawn) > 76.9 µM
COC(=O)C(CCSC)NC(=O)CNC(=O)C1CCCCC1 (stereo not drawn) > 76.9 µM
CCn1c(CCC(=O)Nc2nc3c(s2)CCCC3)nc2cc(S(=O)(=O)N(C)C)ccc21 > 76.9 µM
Cc1cc(NC(=O)CSc2nnc(-c3ccc(Cl)s3)o2)no1 > 76.9 µM
COc1ccc(CCC(=O)N2CCN(C3CCCCC3)CC2)cc1 > 76.9 µM
COc1ccc(C2NCCc3cc(OC)c(OC)cc32)cc1OC (stereo not drawn) > 76.9 µM
Nc1nc(Cn2nnc(-c3ccccc3F)n2)nc(N2CCOCC2)n1 > 76.9 µM
COc1ccc(N2CCCn3c2nc2c3c(=O)n(CCCc3ccccc3)c(=O)n2C)cc1 > 76.9 µM
CCn1c(SCC(=O)NC2CCCCC2)nnc1-c1cccs1 > 76.9 µM
O=C(Nc1ccccc1C(=O)N1CCCC1)c1cccc(S(=O)(=O)N2CCCCC2)c1 > 76.9 µM
O=C(CSc1c2c(nc3ccc(Cl)cc13)CCCC2)N1CCN(C(=O)c2ccco2)CC1 > 76.9 µM
C#CCN(C#N)c1nc(NCC)nc(NC(C)C)n1 > 76.9 µM
CCN(CC)C(=O)c1cccc(-c2ccc(OC)cc2)c1 > 76.9 µM
O=C(NCc1cccnc1)c1ccc(CS(=O)(=O)c2ccc(Cl)cc2)o1 > 76.9 µM
COc1ccc(N2CCN(C(=O)CSc3nc4c(c(=O)n(C)c(=O)n4C)n3C(C)C)CC2)cc1 > 76.9 µM
CCCCCn1c(CN2CCN(c3cc(Cl)ccc3C)CC2)nc2c1c(=O)[nH]c(=O)n2C > 76.9 µM
O=C(CCNS(=O)(=O)c1cccc2nonc12)NCCc1ccc(Cl)cc1 > 76.9 µM
CCS(=O)(=O)N1CCCC(C(=O)NCCc2ccc(OC)c(OC)c2)C1 (stereo not drawn) > 76.9 µM
Cc1cc(S(=O)(=O)N(Cc2ccc(F)cc2)CC2CCCO2)ccc1-n1cnnn1 (stereo not drawn) > 76.9 µM
CCC(C)NC(=O)CSc1nc2ccccc2c(=O)n1CCCC(=O)NCC1CCCO1 (stereo not drawn) > 76.9 µM
COc1ccc(NC(=O)C2CCCN(C(=O)NC3CCCCC3)C2)cc1OC (stereo not drawn) > 76.9 µM
CC(=O)Nc1cccc2c1C(=O)NC2=O > 76.9 µM

— PubChem BioAssay AID360 (National Center for Advancing Translational Sciences (NCATS), 2006)
